Sequences with one replicate were seen in a single cluster, so their values are uncertain.
system: ATP; assay: switch fluorescence ratio, 500 uM ATP over buffer (Cy3 cluster intensity, sum of 5 cycles each) (fold (ratio)); higher = stronger signal-on switching upon ATP binding; sequences stand for … in TCGTCGGCAGCGTCAGATGTGTATAAGAGACAGTTTTTTTTTTTTTTTTTTTTTTTTT…TC; settings: aptamer strand: ATP DNA aptamer (quencher-CACCTGGGGGAGTATTGCGGAGGAAGG + anchor), 100 nM annealed; ATP concentration: 500 uM; one replicate
Outline: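 Switching-strand clusters labelled with Cy3 on a modified Illumina MiSeq flow-cell were annealed to 100 nM quencher-labelled ATP aptamer, imaged in selection buffer, and re-imaged after 15 min with 500 uM ATP at 22 °C. This was done over five cycles with NaOH stripping and re-annealing in between. The fluorescence ratio is summed target-cycle over summed buffer-cycle Cy3 intensity per cluster, averaged per switch-domain sequence, excluding clusters outside 100-1000 RFU.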
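Also: ATP exposure 15 min at 22 °C before imaging.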

Sequence	switch fluorescence ratio
ACTCGATCCT	1.01
ACTCGGTAAC	1.1
ACTCGTGTGT	1.03
ACTCGTTCAG	1
ACTCGTTTGT	0.969
ACTCTAAGAA	1.11
ACTCTACCTA	1.26
ACTCTAGAGG	1
ACTCTATTGT	1.06
ACTCTCTATT	0.969
ACTCTGGAA	1.37
ACTGAACTTA	1.2
ACTGACCATA	1.15
ACTGACCCGG	1.13
ACTGACGGGG	1.14
ACTGACTGAT	1.16
ACTGAGAGAT	1.01
ACTGATGCGC	1.03
ACTGCAATTT	1.2
ACTGCAGTTG	1.02
ACTGCATCGA	1.03
ACTGCATGCT	1.07
ACTGCCTAC	1.46
ACTGGAAGAA	1.02
ACTGGATCT	0.998
ACTGGCGCGA	1.01

Sequence	switch fluorescence ratio
ACTGGGGA	1.06
ACTGGTGCG	0.96
ACTGGTTGCT	1.02
ACTGTATCTT	1.12
ACTGTCGTCC	0.999
ACTGTGAGCC	0.984
ACTGTGAGG	1.05
ACTGTGCGT	0.99
ACTGTGGGG	1.01
ACTGTTACGT	1.25
ACTGTTCGCA	1.04
ACTGTTTAAT	0.984
ACTGTTTTAC	1.03
ACTTAAGCGC	1.08
ACTTAGTTCC	1.06
ACTTATAGAT	1.02
ACTTATCAGC	1.06
ACTTATCGCT	1.01
ACTTATTGCT	0.997
ACTTCAGTG	0.991
ACTTCAGTGC	1.01
ACTTCGATGG	0.967
ACTTCTGACT	1.06
ACTTCTGTGG	0.996
ACTTCTTCCG	4
ACTTCTTGAA	1.01

Sequence	switch fluorescence ratio
ACTTGACCAT	1.08
ACTTGAGCTG	0.955
ACTTGATAAT	0.999
ACTTGATAGA	1.01
ACTTGCAAAC	5.52
ACTTGCACGG	1.23
ACTTGCCGCT	1.09
ACTTGGTCTC	1.01
ACTTGTGTAT	0.979
ACTTGTTCTT	1.03
ACTTTACGTG	1.28
ACTTTAGGCT	1.04
ACTTTAGGTA	1.03
ACTTTAGTAC	1.01
ACTTTATGGT	1.04
ACTTTATTCA	1.1
ACTTTCCCCG	3.22
ACTTTCGCT	1.07
ACTTTCGTAC	1.09
ACTTTGAAGG	0.976
ACTTTGTC	0.999
ACTTTTCACA	1.07
ACTTTTCTT	1.01
ACTTTTGTTC	1.05
AGAAAAGCG	1.04
AGAAAAGTGC	1.02

Sequence	switch fluorescence ratio
AGAAAAGTTC	1.12
AGAAAGACA	0.963
AGAAAGCGAG	1.03
AGAAAGCTCA	1.02
AGAAAGCTTG	0.961
AGAAAGGCAT	0.975
AGAAAGGGCT	1
AGAAATAGTG	1
AGAAATCACG	1.01
AGAAATCTAC	1.11
AGAAATGACT	1.01
AGAACAAGCT	1.01
AGAACACTAA	1.02
AGAACCACCA	1.12
AGAACCGCCG	1.06
AGAACGTGGT	1
AGAACTCAGA	1.03
AGAAGAAGAA	1.03
AGAAGAAGCA	0.966
AGAAGCATCC	1.24
AGAAGCCACA	1.06
AGAAGCCGAT	1
AGAAGCGCGT	1.03
